Biological target: T1, D2R-EGFP (UniProt P61169 1-444)
T1 construct: dopamine type 2 receptor; also called EGFP fusion (D2R-EGFP); source: PC-12 cells, transiently cotransfected, in living cells
Assay: FRET or BRET; BRET; PC-12 cells transiently cotransfected with GHS-R1a-Rluc and D2R-EGFP; coelenterazine H 5 uM, 37 °C, D-PBS; negative controls GHS-R1a-Rluc + EGFP and D2R-EGFP + Rluc
Details: partners not purified

Sequence of D2R-EGFP (P61169 whole entry): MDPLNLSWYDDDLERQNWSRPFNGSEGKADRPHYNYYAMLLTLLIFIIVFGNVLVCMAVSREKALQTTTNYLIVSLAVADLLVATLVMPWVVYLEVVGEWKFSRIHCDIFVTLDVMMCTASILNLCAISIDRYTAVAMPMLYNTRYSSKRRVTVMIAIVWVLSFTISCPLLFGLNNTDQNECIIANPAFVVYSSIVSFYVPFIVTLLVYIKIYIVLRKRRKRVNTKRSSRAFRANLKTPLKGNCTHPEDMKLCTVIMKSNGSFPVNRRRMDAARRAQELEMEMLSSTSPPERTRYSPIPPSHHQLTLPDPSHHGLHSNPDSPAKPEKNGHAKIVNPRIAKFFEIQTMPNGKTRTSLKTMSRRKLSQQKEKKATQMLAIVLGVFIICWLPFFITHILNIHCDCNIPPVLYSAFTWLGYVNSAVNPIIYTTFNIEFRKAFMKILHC

B1: GHS-R1a-Rluc (receptor)
chain: not shown
notes: growth hormone secretagogue receptor 1a; also called Rluc fusion (GHS-R1a-Rluc); source: PC-12 cells, transiently cotransfected, in living cells
increase of the BRET ratio over the negative control D2R-EGFP + Rluc: 220% | increase of the BRET ratio over the negative control GHS-R1a-Rluc + EGFP: 240%
